Reference: the supplement of paper PMC3334620
Over roughly 33,000 sequences, “E-score (-0.5 to 0.5)” has its median near -0.053; the highest 2% begin near 0.37. Some of the results follow.

These sequences were tested against Hap1 (UniProt P0CE41) (assay: PBM E-score (8-mer binding enrichment) (E-score (-0.5 to 0.5)); higher = stronger / more preferred TF binding; most listed sequences are background and not binding sites). Details: protein concentration: 200 nM; construct: GST-DNA-binding domain.
Chain of UniProt P0CE41 (P0CE41 whole entry, the tested form may be a part): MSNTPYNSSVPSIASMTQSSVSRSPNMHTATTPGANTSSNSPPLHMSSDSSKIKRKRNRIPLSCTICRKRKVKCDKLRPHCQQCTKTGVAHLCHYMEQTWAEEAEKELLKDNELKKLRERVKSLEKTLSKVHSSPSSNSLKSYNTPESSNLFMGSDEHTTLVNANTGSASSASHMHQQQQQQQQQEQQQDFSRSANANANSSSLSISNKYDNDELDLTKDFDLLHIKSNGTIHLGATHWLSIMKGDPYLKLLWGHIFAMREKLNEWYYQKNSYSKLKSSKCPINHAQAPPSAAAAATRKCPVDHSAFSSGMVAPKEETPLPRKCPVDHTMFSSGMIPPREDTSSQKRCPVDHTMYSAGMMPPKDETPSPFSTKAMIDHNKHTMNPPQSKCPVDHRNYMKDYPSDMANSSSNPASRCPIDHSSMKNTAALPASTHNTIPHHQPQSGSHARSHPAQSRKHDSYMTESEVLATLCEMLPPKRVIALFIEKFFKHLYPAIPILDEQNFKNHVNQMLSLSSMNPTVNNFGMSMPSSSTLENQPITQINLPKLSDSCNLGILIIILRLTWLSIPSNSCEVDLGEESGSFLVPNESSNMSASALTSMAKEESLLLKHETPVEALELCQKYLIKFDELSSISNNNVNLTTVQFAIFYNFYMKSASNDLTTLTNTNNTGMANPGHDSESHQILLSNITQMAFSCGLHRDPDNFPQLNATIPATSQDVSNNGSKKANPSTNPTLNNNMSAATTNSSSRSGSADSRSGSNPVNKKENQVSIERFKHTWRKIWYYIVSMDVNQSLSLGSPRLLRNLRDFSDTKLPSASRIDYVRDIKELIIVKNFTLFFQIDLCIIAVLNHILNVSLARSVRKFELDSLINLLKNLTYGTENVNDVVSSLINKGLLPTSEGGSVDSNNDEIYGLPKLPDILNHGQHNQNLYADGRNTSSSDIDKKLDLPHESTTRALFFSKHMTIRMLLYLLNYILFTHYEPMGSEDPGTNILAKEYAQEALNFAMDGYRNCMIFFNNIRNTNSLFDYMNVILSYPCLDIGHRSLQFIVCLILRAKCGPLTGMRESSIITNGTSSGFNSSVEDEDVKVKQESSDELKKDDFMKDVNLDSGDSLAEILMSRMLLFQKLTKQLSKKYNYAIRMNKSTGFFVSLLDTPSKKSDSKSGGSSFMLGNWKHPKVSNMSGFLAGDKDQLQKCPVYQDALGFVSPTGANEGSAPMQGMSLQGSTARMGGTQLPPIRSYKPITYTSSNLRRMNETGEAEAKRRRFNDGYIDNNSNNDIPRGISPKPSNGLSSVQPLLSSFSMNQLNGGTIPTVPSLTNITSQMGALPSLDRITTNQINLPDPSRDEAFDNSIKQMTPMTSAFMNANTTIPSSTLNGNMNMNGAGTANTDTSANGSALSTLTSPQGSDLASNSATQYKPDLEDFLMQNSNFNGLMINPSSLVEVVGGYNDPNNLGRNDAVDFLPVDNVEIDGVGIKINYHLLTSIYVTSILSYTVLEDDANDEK
Method in brief: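 Masliner-normalised scans of fluorescent anti-GST signal were the basis for scoring. That signal came from GST-tagged yeast transcription factors applied at about 100-200 nM to double-stranded universal all-10-mer Agilent arrays on fresh or once-stripped slides. Each ungapped eight-base word, pooled with its reverse complement, received an E-score from the Universal PBM Analysis Suite.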

Sequence	PBM E-score
CGCCAGCA	-0.214
TATATGCA	-0.237
CAACAACA	-0.303
GTAGTAGA	-0.126
CGGAGCAG	0.353
ATGCCTCA	0.00397
CAGTGGAC	-0.115
GCTGGCGA	-0.0888
AGTACGAA	0.0503
TAGTCGAA	-0.0985
AACAGTCC	-0.229
AGATCGCA	-0.116
AGGAAGCG	-0.0547
ACGGACCT	0.344
GGCGGGCA	0.109
AGGCATCA	-0.292
CGAAGAGA	0.0447
ACGCCCAG	-0.174
CGCCGACC	0.251
CCGCACCC	0.209
TCAGATAA	-0.00666
AGAAAGCT	-0.049
CCGCTAGA	0.0346
GGGACTGA	-0.127
CTGGATGA	-0.138

Sequence	PBM E-score
AGAAGGTG	0.0485
AGTAGGAG	-0.236
GGGGTAAA	0.00177
GCACCCTA	-0.223
AATCCGTA	0.219
AATCTTTC	0.0211
GTATGAAC	-0.0359
AATCACTG	0.0378
ACACTCGG	0.166
GCTGGGAC	-0.0902
ATACACTG	-0.179
GACATACC	0.0629
AAGACACT	-0.128
AGGTCTGG	-0.0712
ATATACCC	0.191
ATGAGAAT	-0.0856
CGCGAGCG	0.104
CTATACAG	-0.201
CGCACGAG	0.0104
AGTTCTTA	0.0534
GGTTATAC	0.126
CACGTCTA	-0.354
CGGTGCGC	0.209
CACTGCTC	-0.104
AAGTGCCA	-0.112

Sequence	PBM E-score
GTTGTGGA	-0.0782
CGAAAAAC	0.169
GGATGCAA	0.0473
CCCGTCCC	0.0345
CGAGCATA	-0.0516
GTAACTGA	-0.217
CAAGGCTC	-0.277
AAACTGGA	-0.0417
CATTACAA	-0.0558
TCAACCGA	0.281
CAGTATGG	-0.175
CGATCGTC	0.0887
CAGCGTAA	-0.0958
CCACAGTC	-0.356
AAACATAT	0.174
ACCGTTCC	0.156
CCGTGAGC	0.102
AGAGACGA	-0.121
GCAGTGGC	-0.0499
CACCAGTA	-0.131
ATAGGGGC	0.022
GAACTGGC	0.171
AGACCACA	-0.115
CCGAATCG	0.314
AGAAGAGC	-0.191

Sequence	PBM E-score
ACTACGCG	0.117
AAACGTCG	0.00491
AATTATGT	-0.108
AGTTGGAA	-0.129
AATCGGTA	0.138
TCACCTAA	-0.0983
CATTCGCA	-0.217
GAATGTGA	0.00267
GAGAGCTC	-0.0379
ATCAGTTC	-0.0966
AGATCCAG	-0.0735
AATCGCGT	0.111
CTCCACTA	-0.00467
AGTCGCAA	-0.113
ATTAATAG	-0.099
CCCACCAA	-0.0745
AAGGCCCT	-0.0905
CTCAAAGC	-0.0476
ACCTTAGC	-0.165
CCGTAAGA	0.269
CTAGAACA	0.0858
TGAGCGAA	0.0926
AACCCCGA	0.456
GGGCCCCC	0.0151
AGCGTACG	-0.104

Sequence	PBM E-score
AGGGTCAT	-0.156
AACGTCGT	0.0706
CTGGCTGA	-0.14
GTGTAGTA	-0.0397
GACCTAAA	0.163
AGGTAGGA	-0.196
GAAAGCAA	0.127
ACACGATA	0.174
TGGTCCAA	-0.044
CTAGGGAG	-0.232
GACCTCAA	-0.168
CAGCGAAG	-0.156
CCCACCGC	0.153
ATCTCCTG	0.178
CAACCGAG	0.23
GCACGCCA	-0.113
ATTGTTCG	0.215
GCTCGAAA	0.0881
GCGGCGCC	0.189
TCTCTAAA	0.00367
CCATATGA	-0.173
ATAGAGGC	-0.302
ATTCAGGA	-0.0935
CTTCACGA	-0.341
AGTATCGC	0.174

Sequence	PBM E-score
AAAGAACT	-0.114
GCATGGTA	-0.122
CTTTTCGA	-0.16
GTATCGAA	-0.152
CGAACAAA	0.171
TATTCGCA	-0.094
AGTGCGAT	-0.0914
TCTGCCCA	-0.043
GGTTTTGA	0.0654
GGTTCAGA	-0.127
AGAGGACC	-0.219
CTTTTGGA	-0.0089
TCCAGAGA	-0.228
CCGATACC	0.377
TCAATAAA	-0.181
CCCTCACA	-0.259
ACCATCTC	-0.032
CCTCCTGC	-0.171
AACCTTGG	-0.067
CGCATTAA	0.116
CTGGACAA	-0.215
CAACCCAG	-0.211
ACCACCGA	0.288
CGACAAAA	0.0973
CAGACCAC	-0.211

Sequence	PBM E-score
TACCGAGA	0.209
AAGCCCCG	0.285
AATTTGAC	-0.103
GACTCAGA	-0.173
TTGAGCAA	-0.259
GCAGAGAC	-0.201
GAGTACGC	-0.138
CGGTTAAA	0.313
ACTGCATC	-0.168
GAGGTTGA	-0.139
ATTATAAA	0.0229
CCTAGCGA	-0.312
CGATGATC	0.0483
ATGTCACG	-0.0431
ACTCGCGG	0.0324
AGGGAGGC	-0.108
AAGACGAG	-0.116
GAGGCAAA	0.0536
AGCGTTGA	-0.0757
GACGGTGC	0.0455
GTGGCCAC	0.203
ATGAGGTG	-0.156
GCAGGGTA	-0.0894
TGGACACA	-0.0471
AATCCCTG	-0.18

Sequence	PBM E-score
ACTGGAAC	-0.00282
TTTATAAA	0.16
ACTACACT	-0.219
ACGATAAC	0.0651
ATCGCTCG	0.205
AGTCGATG	-0.127
AAGCCAGT	-0.328
CTCAACCA	-0.154
CGACCCCA	0.105
ACGGTTGG	-0.0421
ACCAGTAC	-0.0787
ACTAGGCT	-0.132
CACGCACC	-0.14
AGGCTAGA	-0.121
CCTTCTAG	-0.341
CTGTCTGC	-0.296
AATCATCC	0.0211
AAACCGTA	0.146
ATTCGCTA	-0.0993
AGGGCGCC	0.106
GATATAGA	0.0385
CATACGGC	0.162
CTCATCAA	0.0456
CGATAGCA	0.112
ATGATCTA	-0.0838

Sequence	PBM E-score
TCCGTAGA	0.297
TAAACCTA	-0.00275
CAGGCTTA	-0.0377
CTGGGTAC	-0.0802
AGTGGAAC	0.0266
AGGTCACT	-0.221
ACGGTAGG	-0.0364
AGCGAACC	-0.0488
GCATGGCC	0.0578
TCGTACGA	-0.105
GCCTTCCC	-0.0724
ATATAATC	0.0272
AACCACGG	0.105
ATTGGGCC	0.0392
CCCAGCGG	0.0427
CGGCATTA	0.459
AGGAGGAC	-0.265
CCGCTCTA	0.0538
CAATGGGG	-0.0711
